Screen size: about 2,000 compounds; about 45 (2%) were called active.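 How the source made its calls: active means inhibition above the mean of all tested compounds plus 3 SD (cut at about 49% in these data); inactive means the rest.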 Some of the results follow.

Broadly, the inhibition is the change of the read-out against control, counted positive when it falls.

The target of the test is Perilipin-5 (Homo sapiens) + 1-acylglycerol-3-phosphate O-acyltransferase ABHD5 (Homo sapiens) (UniProt Q00G26+Q8WTS1). Nature of the test: blockers of ABHD5 binding to perilipin-5 – cell lysate, split luciferase complementation, luminescence, NIH validation set, pilot screen (AID 493035).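 Further: 0% = DMSO only wells while the 100% control is not stated.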 Conditions: split G. princeps luciferase complementation, lysates, 4 h; at 7.9 µM, active compounds read high.
Sequence of UniProt Q00G26 (Q00G26 whole entry, looked up): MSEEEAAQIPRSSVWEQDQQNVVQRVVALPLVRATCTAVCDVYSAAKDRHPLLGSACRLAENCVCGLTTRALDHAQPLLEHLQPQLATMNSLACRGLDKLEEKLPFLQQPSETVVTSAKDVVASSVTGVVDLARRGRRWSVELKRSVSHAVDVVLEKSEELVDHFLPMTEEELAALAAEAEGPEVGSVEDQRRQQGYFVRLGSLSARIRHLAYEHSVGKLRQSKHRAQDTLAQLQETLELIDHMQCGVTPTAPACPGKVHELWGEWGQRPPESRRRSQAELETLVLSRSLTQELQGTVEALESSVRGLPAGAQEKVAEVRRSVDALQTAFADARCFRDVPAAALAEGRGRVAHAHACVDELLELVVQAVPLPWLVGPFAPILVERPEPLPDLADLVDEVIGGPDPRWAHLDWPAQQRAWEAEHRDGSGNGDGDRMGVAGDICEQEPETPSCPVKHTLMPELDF
Sequence of UniProt Q00G26 (Q8WTS1 whole entry, looked up): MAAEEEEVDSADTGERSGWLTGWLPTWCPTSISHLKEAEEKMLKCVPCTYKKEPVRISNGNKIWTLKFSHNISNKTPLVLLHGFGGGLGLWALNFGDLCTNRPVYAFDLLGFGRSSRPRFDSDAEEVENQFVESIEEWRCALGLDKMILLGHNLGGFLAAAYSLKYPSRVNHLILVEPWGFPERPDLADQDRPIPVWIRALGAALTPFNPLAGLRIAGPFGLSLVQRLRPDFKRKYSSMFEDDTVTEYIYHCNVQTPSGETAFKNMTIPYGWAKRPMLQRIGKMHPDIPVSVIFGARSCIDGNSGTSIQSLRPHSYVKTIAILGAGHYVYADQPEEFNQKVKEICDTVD
Turning to `COc1cc(COc2ccc3c(C)c(Cc4ccccc4)c(=O)oc3c2)cc(OC)c1OC`, the inhibition was inactive: 12.4%. The result for `O=C(Cc1ccccc1)NCC(=O)OCC(=O)c1ccccc1Cl` reads inactive: -14.4%; that for `Cc1cnc(C(=O)N2CCCC(C(=O)c3ccc(Cl)cc3C)C2)cn1` (stereo not drawn), inactive: 2.61%; that for `CCOc1ccc(C(=O)Nc2ccc(N3CCN(C(C)=O)CC3)cc2)cc1[N+](=O)[O-]`, inactive: 3.94%. For `Cn1c(Oc2ccc3c(c2)OCO3)nc2c1c(=O)n(Cc1ccccc1)c(=O)n2C`, the inhibition was inactive: -4.73%.

On to `COc1ccc2c(=O)c(-c3cnn(-c4ccccc4)c3)c(C)oc2c1`, for which the inhibition was inactive: 11.2%. The result for `Fc1cccc(Cc2noc(CN3CCN(c4cnccn4)CC3)n2)c1` reads inactive: -12.8%. As to `C[C@]12CCC(=O)C=C1CC[C@@H]1[C@@H]2[C@@H](O)C[C@@]2(C)[C@H]1CC[C@]2(O)C(=O)COC(=O)CCC(=O)O`, the inhibition is inactive: 0.93%. With `CC(C)(C)NC[C@H](O)COc1nsnc1N1CCOCC1`, the inhibition was inactive: 4.56%. With `CCc1cccc(OC2OC(CO)C(O)C(O)C2NC(C)=O)c1` (stereo not drawn), the inhibition is inactive: -11.2%. The result for `CCCc1c(OCCCCc2nn[nH]n2)ccc(C(C)=O)c1O` reads inactive: 3.16%.

On to `C=CCc1cccc2cc(C(=O)Nc3ccc(CC(=O)O)cc3)c(=O)oc12`, for which the inhibition was inactive: -5.87%. As for `CCN1CCN(C(=O)N[C@@H](C(=O)N[C@@H]2C(=O)N3[C@@H]2SC(C)(C)[C@@H]3C(=O)O)c2ccccc2)C(=O)C1=O`, the inhibition was inactive: -3.37%. For `CCc1cc2c(C)cc(=O)oc2cc1OC(=O)C1CCCN1C(=O)OC(C)(C)C` (stereo not drawn), the inhibition is inactive: -2.49%. The result for `COc1cc(CNc2nnnn2C)ccc1OCc1ccc(F)cc1Cl` reads inactive: 2.43%; that for `O=C(COc1ccc2c(-c3ccccc3)cc(=O)oc2c1)NCc1cccs1`, inactive: 9.91%. Consider `O=c1cc(-c2ccccc2)oc2cc(OCc3ccccc3)cc(O)c12`, for which the inhibition was inactive: -10.6%.

`C/C(=N\N=C1\NC(=O)C(CC(=O)Nc2ccc(Cl)cc2)S1)c1ccco1` (stereo not drawn): the inhibition was inactive: 15.2%. Take `CC(C)Cc1cc(C(=O)N2CCC(N3CCC(C(=O)N4CCCC4)CC3)CC2)n[nH]1`: the inhibition was inactive: -3.07%. Consider `Nc1nc(SCc2ccc([N+](=O)[O-])cc2)c2ncn(C3OC(CO)C(O)C3O)c2n1` (stereo not drawn), for which the inhibition was inactive: -2.31%. For the molecule `CCOc1ccc2nc(NC(=O)NC3CCCCC3)sc2c1`, the inhibition was inactive: -7.09%. The result for `O=C(N1CCCCC1)C1(c2ccccc2)CCOCC1` reads inactive: -5.27%; that for `CCCC(=O)Nc1ncnc2c1ncn2[C@@H]1O[C@@H]2COP(=O)(O)O[C@H]2[C@H]1OC(=O)CCC`, inactive: -7.86%. The result for `Cc1ccc(CN2CCN(Cc3cn[nH]c3C3CCCCC3)CC2CCO)cc1` (stereo not drawn) reads inactive: -7.54%.

For the molecule `O=C(c1cccnc1)N1N=C(C2CC2)CC1(O)C(F)(F)F` (stereo not drawn), the inhibition is inactive: 2.77%.

With `COC(=O)c1ccc(C(=O)OC)c(NC(=O)C(C)C)c1`, the inhibition was inactive: -13.5%. The result for `COCc1cc(=O)[nH]c(Nc2nc3ccccc3o2)n1` reads inactive: 0.3%; that for `CC1CCCc2sc3ncn(N)c(=N)c3c21` (stereo not drawn), inactive: -6.43%; that for `O=c1oc2c(CN3CCCCC3)c(O)ccc2c2c1CCCCC2`, inactive: 6.3%.

In the case of `CC(=O)[C@@H]1[C@@H](C(=O)c2ccc(C)cc2)[C@]2(C(=O)Nc3ccccc32)[C@H]2C=Cc3cc(F)ccc3N12`, the inhibition was inactive: 9.57%. On to `COc1ccc2c(c1O)Cc1ccccc1C2=O`, for which the inhibition was inactive: 13.4%. The result for `CC(=O)Nc1ccc2[nH]c(C)c(CC=C(Cl)Cl)c(=O)c2c1` reads inactive: -10.7%; that for `O=C(O)c1ccccc1C(=O)OCCCCOC(=O)c1ccccc1C(=O)O`, inactive: -1.56%; that for `CC(=O)OCC#CCSc1nc2ccccc2n1C`, inactive: -5.15%.

Turning to `CCCC(=O)O[C@]1(C(=O)COC(C)=O)CC[C@H]2[C@@H]3C[C@H](F)C4=CC(=O)C=C[C@]4(C)[C@@]3(F)[C@@H](O)C[C@@]21C`, the inhibition was inactive: 5.29%. Consider `Cn1nnnc1SCC1=C(C(=O)O)N2C(=O)[C@@H](NC(=O)[C@H](O)c3ccccc3)[C@H]2SC1`, for which the inhibition is inactive: 7.59%. The result for `O=C(NNC(=O)c1cccs1)c1ccco1` reads inactive: -7.31%; that for `COC(=O)C1=C(C)N(C)C(=S)NC1c1ccc(Cl)cc1` (stereo not drawn), inactive: -3.32%; that for `OCCN1CCN(CCCN2c3ccccc3Sc3ccc(Cl)cc32)CC1`, inactive: -1.53%.

As for `CCn1c(O)c(/C=C2\C=Nc3ccccc32)sc1=O`, the inhibition was inactive: 5.41%. The result for `Nc1ccc(S(=O)(=O)c2ccc(N)cc2)cc1` reads inactive: -13.3%. `O=c1c2ccccc2nnn1Cc1cccc2ccccc12`: the inhibition is inactive: 5.18%. With `C#CCN(C)Cc1ccccc1`, the inhibition is inactive: -11.8%. For `CCn1cc(C(=O)O)c(=O)c2ccc(C)nc21`, the inhibition was inactive: -6.24%. Take `O=C(O)c1ccccc1OCCOc1ccccc1`: the inhibition was inactive: -3.26%. The result for `CC(=O)N(CCC(Cc1ccccc1)c1ccc2c(c1)OCO2)Cc1ccc(Cl)cc1` (stereo not drawn) reads inactive: 7.18%; that for `COc1ccc2cc(CCC(C)=O)ccc2c1`, inactive: -3.15%; that for `CN/C(=C/[N+](=O)[O-])NCCSCc1ccc(CN(C)C)o1`, inactive: -2.37%.

For the molecule `COc1cc2oc(-c3ccc(O)cc3)cc(=O)c2c(OC)c1O`, the inhibition was inactive: 0.79%. The result for `O=C(CCCN1CC=C(n2c(=O)[nH]c3ccccc32)CC1)c1ccc(F)cc1` reads inactive: -6.46%. The result for `CCN(CC)CCNC(=O)c1cc(S(C)(=O)=O)ccc1OC` reads inactive: -2.45%; that for `COc1ccc2oc(=O)c(C(=O)Nc3ccccc3-c3ccccc3)cc2c1`, inactive: -5.51%; that for `C=CCn1c(SCC(=O)NC2CCCCC2)nc2ccccc2c1=O`, inactive: -1.42%.

As for `COc1cc2nc(N3CCN(C(=O)c4ccco4)CC3)nc(N)c2cc1OC`, the inhibition was inactive: 0.42%. The figure for `COc1ccc(OC)c(-n2c(Cn3c(-c4ccccn4)nc4ccccc43)n[nH]c2=S)c1` is inactive: -5.52%; for `CC(=O)Oc1ccc(C2OC(=O)c3ccccc3N2C(C)=O)cc1` (stereo not drawn) it is inactive: 1.11%; for `CC(C)(C)OC(=O)NCCC(=O)Oc1ccc2ccc(=O)oc2c1` it is inactive: -4.73%. For `CCc1cc2c(=O)c(-c3nc4ccccc4n3C)coc2c(CN2CCN(C)CC2)c1O`, the inhibition was inactive: -1.12%.

(Values after PubChem BioAssay AID493035 (The Scripps Research Institute Molecular Screening Center, 2011).)
